Assay results published in PubChem BioAssay AID485344 (National Center for Advancing Translational Sciences (NCATS), 2010).
About 6,900 (2%) of roughly 340,000 compounds were called active. Cut-off read from the data, not from the text of the source: active = inhibition above about 30%; inactive = below that, where a call was filed. Only a part is listed here, and it is no random draw. Where no call is shown, the source filed none.

Each compound was assayed against D(2) dopamine receptor (Homo sapiens) (UniProt P14416) (assay: HTS Assay for Allosteric Antagonists of the Human D2 Dopamine Receptor: Primary Screen for Antagonists). Details: HEK293 TREx D2 cells, calcium flux, dopamine EC80; at 10 µM; stronger effect = higher value.
Chain of UniProt P14416 (P14416 whole entry, looked up): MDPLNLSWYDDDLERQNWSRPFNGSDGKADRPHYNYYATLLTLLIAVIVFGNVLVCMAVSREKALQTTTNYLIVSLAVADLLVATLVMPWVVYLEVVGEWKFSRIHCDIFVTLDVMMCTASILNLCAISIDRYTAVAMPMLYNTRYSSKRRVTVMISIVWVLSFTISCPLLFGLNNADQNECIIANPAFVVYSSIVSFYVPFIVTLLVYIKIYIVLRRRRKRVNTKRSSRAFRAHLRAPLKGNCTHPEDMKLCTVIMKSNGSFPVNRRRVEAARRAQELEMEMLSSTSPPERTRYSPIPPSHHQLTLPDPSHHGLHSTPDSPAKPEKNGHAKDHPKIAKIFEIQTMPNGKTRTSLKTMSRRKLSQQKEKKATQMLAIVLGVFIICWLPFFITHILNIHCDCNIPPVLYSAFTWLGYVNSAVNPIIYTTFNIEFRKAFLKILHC
Method in brief: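 Overnight-induced (tetracycline, 30 C) HEK293 T-REx cells carrying force-coupled D2 receive a no-wash calcium dye, then compound, then EC80 dopamine at 180 s; signals are read kinetically throughout.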
Note: 0% is about no effect.

| Compound | inhibition |
| --- | --- |
| COc1ccc(CC(=O)N(Cc2nc(-c3ccc(C)cc3)no2)C(C)C)cc1 | -8.88% |
| COc1ccc(C2C(=O)N(C3CCC(C)CC3)CC(=O)N2C2CCCC2)cc1OC (configuration not stated) | 6.78% |
| COc1cccc(NC(=O)CSC2=Nc3ccccc3C3=NC(CC(=O)NCc4ccc5c(c4)OCO5)C(=O)N23)c1 (configuration not stated) | 3.03% |
| COc1ccc(C)cc1NC(=O)Nc1ccccc1OCc1cc(=O)n2ccccc2n1 | -9.19% |
| CCCCNC(=O)c1cnc2sc(N3CCCCCC3)nn2c1=O | 4.48% |
| Cc1ccccc1-c1noc(-c2ccc(N3CCN(C)CC3)c([N+](=O)[O-])c2)n1 | -16.5% |
| Cc1cc(C)c(NC(=O)C(=O)NCC(c2cccnc2)N2CCN(Cc3ccccc3)CC2)c(C)c1 (configuration not stated) | -8.66% |
| Cc1c(C(=O)N(Cc2ccco2)Cc2ccccc2Cl)oc2ccc(F)cc12 | -6.9% |
| CN(C)c1ccc(NC(=O)CSc2nc3ccsc3c(=O)n2CCCCCC(=O)O)cc1 | -9.67% |
| COc1ccc(OC(C)C(=O)NCc2nc(-c3cccc(C)c3)no2)cc1 (configuration not stated) | -21.3% |
| O=C(OCC(=O)N1CCCc2ccccc21)c1ccc(S(=O)(=O)C(F)F)cc1 | active: 42.3% |
| CC(=O)c1cccc(NC(=O)Cc2noc3ccccc23)c1 | -8.33% |
| CC(C)CCNC(=O)CN1C(=O)c2cccnc2Sc2ccccc21 | -3.81% |
| O=C(Nc1ccc2nc(SCCOc3ccccc3Cl)sc2c1)c1ccc2c(c1)OCO2 | -5.08% |
| CCCCC(=O)NC1(C(F)(F)F)C(=O)Nc2c1c(=O)[nH]c(=O)n2-c1ccc(C)c(C)c1 (configuration not stated) | 3.46% |
| COc1ccc(CC(=O)Nc2cc(-c3cn4cccnc4n3)ccc2OC)cc1 | -8.37% |
| O=C(CNC(=O)c1ccc(Cl)cc1)OCC(=O)c1ccc2c(c1)OCCO2 | active: 41.2% |
| CCCCOc1ccccc1C(=O)N(Cc1cccc(F)c1)C1CCS(=O)(=O)C1 (configuration not stated) | -7.22% |
| O=C(COC(=O)/C=C/c1ccc(S(=O)(=O)N2CCOCC2)cc1)NCc1ccc(Cl)cc1 | active: 46.5% |
| CCOc1ccc(CCNC(=O)CSc2nnnn2-c2ccc(C)cc2C)cc1OCC | -3.16% |
| CCOC(=O)C1=C(CN(C)Cc2ccccc2)NC(=O)NC1c1ccc(OC)cc1 (configuration not stated) | 0.438% |
| CCOc1ccc(NC(=O)N(C)CCc2c(C)nn(C)c2C)cc1 | -23.7% |
| O=C(NCC(c1cccnc1)N1CCc2ccccc21)c1ccc(F)cc1 (configuration not stated) | 4.91% |
| CC(=O)N1CCc2cc(S(=O)(=O)NC(CC(C)C)C(=O)NCCc3cccc(C)c3)ccc21 (configuration not stated) | 6.03% |
| CCn1c(SCC(=O)Nc2cc(C)on2)nc2sc(C)c(C)c2c1=O | active: 35.5% |

| Compound | inhibition |
| --- | --- |
| CCOc1ccccc1CNC(=O)CSc1nnc(C)c2c(C)n(-c3ccccc3)nc12 | 0.992% |
| Cc1oc(-c2ccccc2Cl)nc1CS(=O)(=O)CC(=O)NC(C)c1ccccc1 (configuration not stated) | 12.4% |
| Cc1ccc2onc(CNC(=O)NCc3ccccc3)c2c1 | -2.85% |
| CCC(C(=O)Nc1ccccc1OC)n1c(C(=O)OC)cc2sc(Cl)cc21 (configuration not stated) | 1.71% |
| CCc1nc(SCC(=O)Nc2cc(C)ccc2OC)c2c(C)c(C)sc2n1 | active: 43.8% |
| O=C(COc1ccccc1)Nc1nnc(SCc2cc(=O)n3cc(Cl)ccc3n2)s1 | -5.76% |
| COc1ccc(CCNC(=O)CCS(=O)(=O)c2cc3c(cc2Cl)NC(=O)CO3)cc1OC | -14.5% |
| CCc1nnc(SCC(=O)Nc2cccc(C(F)(F)F)c2)c2cc3oc(C)cc3n12 | -16% |
| CCOC(=O)Cc1c(C)nc2c(-c3ccc(Cl)cc3)c(C(F)(F)F)nn2c1C | -13% |
| CCCc1nn2cc(-c3ccc(C)c(C)c3)nc2s1 | 12.4% |
| COc1ccc(/C=C/C(=O)Nc2ccc3nc4c(c(Nc5ccc(OC)c(OC)c5)c3c2)CCCC4)cc1 | -5.41% |
| COc1ccc(-c2noc(CSc3nnc(Cc4ccccc4)n3-c3cccc(C)c3)n2)cc1 | -3.69% |
| O=c1[nH]c2ccc(NCc3ccc(-c4ccc(F)cc4)o3)cc2[nH]1 | 2.36% |
| c1ccc2c(c1)ncc1nncn12 | 6.57% |
| Cc1ccc(CN(C(=O)COc2ccc([N+](=O)[O-])cc2)c2ccccn2)o1 | 5.71% |
| CCC1CCCCN1S(=O)(=O)c1cc2c(cc1C)NC(=O)CO2 (configuration not stated) | 14.7% |
| CC(=O)c1ccc(NC(=O)CSc2ccc3nnc(CCNS(=O)(=O)c4ccc(C)cc4)n3n2)cc1 | -0.899% |
| Cc1ccc(Nc2ncc(C(=O)Nc3ccc(F)cc3F)c3ccccc23)cc1Cl | 1.93% |
| CC(=O)c1cccc(NC(=O)C2CCN(S(=O)(=O)c3ccccc3)CC2)c1 | -14.9% |
| COc1ccc(CNC(=O)c2nn(C)c3c2CS(=O)(=O)c2ccccc2-3)cc1 | 8.01% |
| N#C/C(=C\c1ccc(N2CCOCC2)o1)C(=O)NCCc1ccccc1 | active: 45.6% |
| O=C(NCCc1ccccc1)c1cnc2sc(N3CCCCC3)nn2c1=O | 1.65% |
| CCC1Oc2ccccc2N(CC(=O)NCCc2ccc(OC)c(OC)c2)C1=O (configuration not stated) | 24% |
| COc1cc(OC)c(NC(=O)N2CCc3cc(S(=O)(=O)N4CCC(C)CC4)ccc32)cc1Cl | 3.43% |
| O=c1oc2ccc3ccccc3c2cc1-c1nnc(Nc2cccc(C(F)(F)F)c2)s1 | 3.05% |

| Compound | inhibition |
| --- | --- |
| COc1ccc(CCNS(=O)(=O)c2ccc(N3CCCCS3(=O)=O)cc2)cc1 | -15.3% |
| O=C(c1cc2c(s1)-c1ccccc1OC2)N1CCN(c2ccc(F)cc2)CC1 | -1.9% |
| O=c1[nH]c(Nc2ccc3c(c2)OCCO3)nnc1Cc1ccc(Cl)cc1 | active: 33.4% |
| COc1ccc(OC)c(CCNC(=O)Cn2nc(C)n3c(cc4sccc43)c2=O)c1 | -9.91% |
| COc1ccc(-n2ncc(C(=O)NCCN3CCOCC3)c2C2CCN(C(=O)OC(C)(C)C)CC2)cc1 | 11.9% |
| Cc1nc(-c2cccc(S(=O)(=O)N3CCC(C(=O)NCc4ccccc4Cl)CC3)c2)no1 | 7.97% |
| Cn1nc(-c2ccccc2F)c2cc(C(=O)NCc3cccc(Cl)c3)sc21 | -0.6% |
| Cc1cc(C)cc(NC(=O)c2cc(S(=O)(=O)N3CCCC3)ccc2F)c1 | -14% |
| Cc1cccc(CSc2nnc(CCCCCN)o2)c1 | -26.9% |
| Cc1ccc(C)c(NC(=O)c2nnn(Cc3ccc(F)cc3Cl)c2N)c1 | 5.97% |
| CC1CCc2nc(NC(=O)CN3CCN(Cc4ccc5c(c4)OCO5)CC3)sc2C1 (configuration not stated) | active: 72.3% |
| Cc1ccccc1CNCc1c(C(=O)O)c(C)n(Cc2ccc(F)cc2Cl)c1C | 8.09% |
| COc1ccc(-n2ncc3c2ncn2nc(Cc4ccccc4)nc32)cc1 | 4.2% |
| COC(=O)CCC(=O)OC1(C)C(=O)C=C2C=C(C3CC3)N(CC(C)C)C=C2C1=O (configuration not stated) | active: 31.5% |
| CC(=O)Nc1ccc(C(=O)Nc2ccc3c(c2)N(C2CCCC2)C(=O)c2ccccc2S3)cc1 | 18.7% |
| O=C(O)/C=C/C(=O)NCCc1ccccc1 | active: 60.9% |
| Cc1nnc(N2CCC(C(=O)NC(C)C)CC2)c2nn(-c3ccccc3)c(C)c12 | -5.95% |
| O=C(Nc1ccc(F)cc1)c1cc2cc3ccc(Cl)cc3nc2o1 | -8.92% |
| Cc1ccc(-c2noc(-c3nnn(-c4ccc(Br)cc4F)c3C)n2)cc1 | -5.2% |
| COc1ccc(OC)c(NC(=O)Nc2ccc(Cl)cc2)c1 | active: 46.5% |
| COc1cc2c(cc1NC(=O)COc1ccc(Cl)cc1)oc1ccccc12 | 11.6% |
| Cc1ccccc1Nc1nc(N)nc(COC(=O)CCS(=O)(=O)c2ccccc2)n1 | active: 31.7% |
| COc1ccc(NC(=O)Cn2c(=O)n(Cc3ccco3)c(=O)c3oc4ccccc4c32)cc1Cl | -7.48% |
| CCn1cc2nc(SCc3cccc(C(F)(F)F)c3)n(Cc3ccc(OC)cc3)c(=O)c2n1 | -11% |
| COc1cc(Cl)c(C)cc1NC(=O)Cn1c(C)c2cnn(-c3ccccc3)c(=O)c2c1C | 0.206% |

| Compound | inhibition |
| --- | --- |
| CC(=O)Nc1c(C)nn(-c2ccccc2)c1N1CCC(C(=O)NCc2ccc(F)cc2)CC1 | -5.02% |
| C=C(C)Cn1c(SCC(=O)c2ccccc2)nc2sc3c(c2c1=O)CCCC3 | 1.96% |
| CC(=O)c1ccc(NC(=O)CSc2nnc(N)s2)cc1 | 20.1% |
| O=C(Nc1cccc(C(F)(F)F)c1)C1CCN(S(=O)(=O)c2cccs2)CC1 | 18.9% |
| Cc1cc(C)cc(-n2c(SCC(=O)N3CCCCCC3)nc3c([nH]c4ccccc43)c2=O)c1 | -20.5% |
| CCS(=O)(=O)c1ncc(Cl)c(C(=O)NCc2ccccc2)n1 | -11.1% |
| O=C(Nc1cc(F)ccc1F)c1ccc(CN2CC(=O)N3CCCCC3C2=O)cc1 (configuration not stated) | 23% |
| COc1ccc(-c2cc(=O)oc3c4c(ccc23)OCN(Cc2ccccc2)C4)cc1 | 6.48% |
| CC1CCN(CCCCOc2ccc(F)cc2)CC1 | active: 44.2% |
| O=C(CNC(=O)c1ccccc1)OCc1cc(=O)n2nc(C3CC3)sc2n1 | 12% |
| O=c1c2oc3ccccc3c2n(Cc2ccc(Cl)cc2)c(=O)n1Cc1ccccc1 | 13.8% |
| CCC1CCCCN1C(=O)CCS(=O)(=O)c1cc2c(cc1C)NC(=O)CO2 (configuration not stated) | -4.35% |
| Cc1ccc(Nc2c(-c3ccc(C)o3)nc3cccc(C)n23)cc1 | 1.2% |
| CCOC(=O)c1c(C)[nH]c(C)c1S(=O)(=O)N1CCC(C(=O)Nc2ccc(C)c(N(C)C)c2)CC1 | 4.18% |
| Cn1cc(C(=O)NCCc2ccccc2)c(=O)c2cc(S(=O)(=O)N3CCCCC3)ccc21 | 3.24% |
| CC(C)(C)OC(=O)N1CCC(c2c(C(=O)N3CCN(Cc4ccccc4)CC3)cnn2-c2ccc(Cl)cc2)CC1 | -17.6% |
| Cc1cc(-c2ccc(C)c(S(=O)(=O)NCc3cccs3)c2)on1 | -2.43% |
| CCc1ccc(N2C(=O)CN(S(=O)(=O)CC)CC2(C)C(=O)NC2CCCCC2)cc1 (configuration not stated) | 17.8% |
| Cc1ccc(NC(=O)c2oc3ccccc3c2NC(=O)C23CC4CC(CC(C4)C2)C3)cc1 | -27.8% |
| NS(=O)(=O)c1ccc(CCNC(=O)CNC(=O)c2ccc(Br)o2)cc1 | active: 65.8% |
| Cc1oc2cc(O)ccc2c(=O)c1Oc1ccccc1Br | active: 36.6% |
| COc1ccc(C(=N/O)/C(=N/O)c2ccc(OC)cc2)cc1 | active: 39.6% |
